# Measurements as given in the supplement of paper PMC4166925.
# ± gives the standard deviation of the averaged measurements. Over roughly 33,000 sequences, “E-score (dimensionless, -0.5 to 0.5)” has its median near -0.049; the highest 2% begin near 0.37. Some of the results follow.
# Test system: T1, PmTbr T-box DNA-binding domain (GST fusion)
# T1 sequence: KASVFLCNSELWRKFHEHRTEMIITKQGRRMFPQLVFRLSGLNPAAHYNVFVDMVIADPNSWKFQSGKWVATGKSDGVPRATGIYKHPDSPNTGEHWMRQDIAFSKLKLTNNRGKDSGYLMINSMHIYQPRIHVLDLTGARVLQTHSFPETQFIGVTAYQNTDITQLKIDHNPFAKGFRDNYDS
# Test: PBM E-score of 8-mer (E-score (dimensionless, -0.5 to 0.5)); Tbr is Tbrain of the sea star Patiria miniata (Pm) or the sea urchin Strongylocentrotus purpuratus (Sp); higher = stronger binding preference; most listed sequences are background and not binding sites
# Conditions: the construct has about 5 more residues each side
# Outline: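 Each ungapped 8-mer received an enrichment E-score from the Universal PBM Analysis Suite, averaged over duplicate arrays. The proteins were Tbr T-box DNA-binding domains, covering the whole T-box plus about five flanking residues, fused to GST and expressed in BL21 E. coli at 20 °C before glutathione affinity purification. Universal Agilent oligonucleotide arrays were made double-stranded by primer extension and incubated with 200 nM protein in PBS (pH 7.5). The arrays were then scanned and quantified, and every 8-mer was scored from probe intensities.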
row,Sequence,PBM E-score of 8-mer
1,ATCCACCC,0.0355 ± 0.035
2,CCATGATC,-0.0602 ± 0.011
3,CAACTGCC,0.164 ± 0.019
4,GGCCTAAC,-0.051 ± 0.039
5,GCTAGGGA,0.0212 ± 0.031
6,CGTTTGGA,-0.0261 ± 0.0032
7,CTTTGGCC,-0.27 ± 0.068
8,TAACCGGA,-0.0209 ± 0.062
9,CACTACAC,0.169 ± 0.044
10,AAGCTGCG,0.107 ± 0.0034
11,CGGGCATA,-0.213 ± 0.2
12,AATGAGAC,0.0183 ± 0.0044
13,TCAACCAA,-0.0965 ± 0.0019
14,GTGGTTCA,-0.0776 ± 0.029
15,ACCTTGAT,0.0787 ± 0.059
16,TGATGTAA,-0.0938 ± 0.03
17,GAGTAAAC,-0.0381 ± 0.018
18,GTTAGAAC,0.0847 ± 0.031
19,AGCTCGGG,-0.233 ± 0.01
20,ATTACGTA,-0.169 ± 0.0051
21,GCGATGTA,0.0636 ± 0.0069
22,AATCAGTA,-0.0919 ± 0.032
23,AGTACCAG,-0.145 ± 0.08
24,AGTCTGTG,-0.0993 ± 0.051

row,Sequence,PBM E-score of 8-mer
1,GGACGTGA,0.259 ± 0.0037
2,ACCTCTGC,0.114 ± 0.051
3,AATGCTTC,-0.0719 ± 0.18
4,CAAACCTA,-0.158 ± 0.0051
5,AGCATTCC,0.047 ± 0.023
6,CTTTTTTA,-0.0882 ± 0.16
7,CAACATAG,-0.169 ± 0.035
8,TTACCGAA,-0.2 ± 0.041
9,ACCTACTA,0.128 ± 0.021
10,ACTGTGAG,0.22 ± 0.017
11,CTATCACA,0.305 ± 0.009
12,GCTTACCA,-0.0556 ± 0.093
13,TGATATCA,0.259 ± 0.011
14,ATTATGCG,-0.162 ± 0.031
15,ATAGGATC,-0.178 ± 0.024
16,GCGAACAA,0.133 ± 0.004
17,CCAGGGGG,-0.0137 ± 0.0017
18,CCGGGGTA,-0.0768 ± 0.015
19,AATGTGGG,0.214 ± 0.036
20,ACTGGCCC,-0.164 ± 0.004
21,ACCGCCCA,-0.066 ± 0.0059
22,AAGAGACA,-0.119 ± 0.093
23,AACAGGGC,0.0566 ± 0.012
24,GCGTCTCA,0.00931 ± 0.019

row,Sequence,PBM E-score of 8-mer
1,AACCAAAG,-0.298 ± 0.06
2,CCACGGCC,0.12 ± 0.021
3,CTCAAATC,0.059 ± 0.054
4,AATCCGCG,0.0877 ± 0.013
5,CGATCGAA,-0.13 ± 0.0037
6,ATGGCGCA,-0.0543 ± 0.098
7,ACTATTTA,0.116 ± 0.085
8,AGCCGGGG,-0.217 ± 0.028
9,CCAGTACC,-0.0862 ± 0.059
10,GAGTAGTA,-0.156 ± 0.053
11,CCTACCCG,0.0823 ± 0.023
12,CACATAGC,0.256 ± 0.037
13,AGCTATGC,-0.214 ± 0.044
14,CAATGGCA,0.157 ± 0.024
15,CTACTTAC,0.0878 ± 0.044
16,CATCTGAC,0.0163 ± 0.016
17,AACTATCC,-0.231 ± 0.032
18,AATTCTGT,0.0336 ± 0.035
19,GCCGAACC,-0.348 ± 0.025
20,AACAATTA,0.0945 ± 0.0071
21,GGTGGGAC,0.189 ± 0.011
22,ATTACACC,0.349 ± 0.0023
23,CTACGCAC,0.0515 ± 0.034
24,CGTTACAC,0.181 ± 0.0063

row,Sequence,PBM E-score of 8-mer
1,GCGTTTCA,-0.121 ± 0.034
2,ACTGAAAG,-0.0925 ± 0.034
3,GGTGTCCA,0.294 ± 0.021
4,CCCTTGGA,-0.13 ± 0.033
5,CCAGCGTA,-0.191 ± 0.039
6,CAAAGTCA,-0.158 ± 0.012
7,AGATGCAC,-0.217 ± 0.11
8,CTATTCGA,-0.124 ± 0.004
9,CTTGCCGC,-0.0178 ± 0.037
10,GAAGCTTC,-0.0406 ± 0.17
11,GGTTAGCA,0.314 ± 0.027
12,GAATTCAA,-0.132 ± 0.067
13,GGCATCCA,-0.0589 ± 0.0093
14,CCGAGGTA,-0.286 ± 0.05
15,AAAAATGC,-0.047 ± 0.066
16,AAGCATTG,-0.0972 ± 0.077
17,GAACGGAC,0.135 ± 0.012
18,GTGGAGCA,-0.0549 ± 0.039
19,AGGAGATC,-0.171 ± 0.1
20,AGCCTTAA,-0.195 ± 0.07
21,AAGGGTAC,-0.04524 ± 5.7e-05
22,AACAAGTG,0.317 ± 0.036
